Results as given in PubChem BioAssay AID463173 (ICCB-Longwood Screening Facility, Harvard Medical School, 2010).
Hit rate of the full screen: of about 52,000 compounds, about 1,700 (3.3%) were called active. Cut-off read from the data, not from the text of the source: active = survival mostly below about 52% (no sharp cut-off); inactive = mostly above about 56%. The list shows a part of the results.

Tested on: Wild type
Assay: growth inhibition of S. aureus wild type versus tarO mutant, primary screen, teichoic acid synthesis inhibitors, RN4220, OD600 (AID 463173)
Conditions: S. aureus RN4220 wild type/DeltatarO growth, OD600, 18 h, hits give low values, screened at 18.75 µg/mL (by protocol)

Row | SMILES | survival
1 | CCOc1ccc(NC(=O)CSc2nccn2-c2cccc(C)c2C)cc1 | inactive: 146%
2 | CC(=O)N1CCCc2cc(S(=O)(=O)N3CCCCC3)ccc21 | inactive: 60%
3 | CCOc1ccccc1CNC(=O)c1cc2c(=O)n(Cc3ccccc3)ccc2nc1C | inactive: 138%
4 | CN(C(=O)c1cc2c(=O)oc3ccccc3c2s1)c1ccc(F)cc1 | inactive: 80%
5 | Cc1ccc2nc(-c3ccc(Cl)c(NC(=O)c4cccnc4)c3)oc2c1 | inactive: 139%
6 | CC1=NN(c2ccccc2)C(=O)C1C(=O)O (stereo unspecified) | inactive: 104%
7 | COc1ccc(S(=O)(=O)N2C3CCC2CC(NC(=O)C2CC2)C3)cc1 (stereo unspecified) | inactive: 106%
8 | CCCCn1c2ccc(F)cc2c2nnc(SCCN3CCCCC3)nc21 | inactive: 139%
9 | Cc1ccc(OCC(=O)NCC(=O)OCc2cc(=O)n3nc(C)sc3n2)cc1 | inactive: 97%
10 | CCOC(=O)C1CCN(S(=O)(=O)c2cc(-c3onc(C)c3C)ccc2OC)CC1 | inactive: 60%
11 | O=S(=O)(NCC(c1ccco1)S(=O)(=O)c1cccs1)c1ccc(F)c(C(F)(F)F)c1 (stereo unspecified) | inactive: 32%
12 | Cc1ccc(CNC(=O)c2nc(SCc3ccc(C)cc3)ncc2Cl)cc1 | inactive: 116%
13 | COc1ccc(CCNC(=O)CSc2ncc3c(n2)-c2cc(Cl)ccc2N(Cc2ccccc2)S3(=O)=O)cc1OC | inactive: 79%
14 | CCc1ccccc1NC(=O)Cn1c(=O)c2cccn2c2ccc(F)cc21 | inactive: 103%
15 | CC(C)c1ccc(NC(=O)CSC2=Nc3ccccc3C3=NC(CC(=O)NCc4ccc(F)cc4)C(=O)N23)cc1 (stereo unspecified) | inactive: 73%
16 | COc1ccc(CNC(=O)c2ccc3c(c2)N(Cc2cccc(Cl)c2)C(=O)c2ccccc2S3)c(OC)c1 | inactive: 84%
17 | COCCCNC(=O)CCn1c(=O)c2ccccc2n(CC(=O)Nc2c(C)cc(C)cc2C)c1=O | inactive: 84%
18 | CC1CN(S(=O)(=O)c2cccs2)C(C)CN1S(=O)(=O)c1cccs1 (stereo unspecified) | inactive: 92%
19 | CC(C)c1ccc(OC(=O)c2cc(-c3ccc4c(c3)OCCO4)on2)cc1 | inactive: 46%
20 | Cc1ccc(-n2c(=O)c3cccnc3n2CC(=O)Nc2cccc(C)c2C)cc1 | inactive: 140%
21 | Cc1cccn2c(Nc3ccccc3)c(-c3ccc(N4CCOCC4)cc3)nc12 | inactive: 125%
22 | CCOc1ccc(C(=O)Nc2nnc(SCc3cc(=O)c4cc(C)ccc4[nH]3)s2)cc1 | inactive: 77%

Row | SMILES | survival
23 | O=C(Oc1ccc(N(Cc2ccco2)C(=O)Cn2cnc3ccccc3c2=O)cc1)c1ccccc1F | inactive: 103%
24 | Cc1nn(-c2ccccc2)c(OC(=O)c2ccccc2F)c1S(=O)(=O)c1ccccc1 | inactive: 67%
25 | COc1cccc2sc(N(Cc3cccnc3)C(=O)COc3ccccc3)nc12 | inactive: 83%
26 | NC(=O)Cn1cc(F)c(=O)[nH]c1=O | inactive: 101%
27 | Cc1ccc(C)c(NC(=O)CSc2nc(=O)n(CCN(C)C)c3c2CCC3)c1 | inactive: 127%
28 | COc1cc(CN(C(=O)c2ccccc2[N+](=O)[O-])c2ccccn2)cc(OC)c1OC | inactive: 85%
29 | Cc1sc2c(c1C)c(=O)n(CCc1ccccc1)c(=O)n2Cc1ccccc1Cl | inactive: 96%
30 | COc1cccc(N2CCN(C(=O)c3cccc(NC(=O)c4nsc5ccccc45)c3)CC2)c1 | inactive: 71%
31 | CC1CCN(S(=O)(=O)c2ccc3c(c2)N(CC(=O)NCCCN2CCCCC2C)C(=O)CS3)CC1 (stereo unspecified) | inactive: 72%
32 | N#Cc1ccccc1NC(=O)c1cc2c(=O)n3ccccc3nc2s1 | inactive: 96%
33 | CCN(CC)S(=O)(=O)c1ccc2c(c1)nc(CN(C)C(=O)c1cccc(Cl)c1)n2C | inactive: 82%
34 | COc1ccc(CCNC(=O)C2=C(C)C(=O)OC23CCCCC3)c(OC)c1OC | inactive: 79%
35 | CCn1c(=O)c2cc(C(=O)N3CCN(c4cccc(Cl)c4)CC3)sc2c2ccccc21 | inactive: 76%
36 | CCC(=O)N1CCNC(=O)C1CC(=O)OC (stereo unspecified) | inactive: 117%
37 | CN(C(=O)COc1ccccc1)c1nc(-c2ccccc2)cs1 | inactive: 111%
38 | COc1cc(Cl)c(C)cc1NC(=O)c1cc(CN2CCOCC2)on1 | inactive: 65%
39 | COc1ccc(OC)c(CNC(=O)C2CCN(S(=O)(=O)c3cn(C)cn3)CC2)c1 | inactive: 82%
40 | Cc1ccc(S(=O)(=O)c2cn(Cc3ccccc3F)c3cc4c(cc3c2=O)OCO4)cc1 | inactive: 121%
41 | CC1CCCN(Cc2c(O)ccc3c(=O)c(Oc4ccccc4Cl)c(C(F)(F)F)oc23)C1 (stereo unspecified) | inactive: 71%
42 | CCN=C1SC(C(=O)Nc2ccc(Br)cc2)CC(=O)N1CC (stereo unspecified) | inactive: 114%
43 | CCc1ccccc1NC(=O)Nc1cc(C(=O)NCc2ccc(C(C)C)cc2)ccc1N1CCCC1 | inactive: 131%
44 | Cc1cc(NC(=O)c2ccc3c(c2)N(Cc2cccc(Cl)c2)C(=O)c2ccccc2S3=O)ccc1Br (stereo unspecified) | inactive: 72%

Row | SMILES | survival
45 | O=C(O)CN1C(=O)c2ccc(Br)cc2C1=O | inactive: 113%
46 | CCC1CN(S(=O)(=O)c2cc(-c3cc(C)no3)ccc2OC)c2cc(C)ccc2O1 (stereo unspecified) | inactive: 120%
47 | Cc1cc(=O)n2c(C(=O)Nc3ccc(C)c(Cl)c3)c(C(=O)Nc3ccccc3)sc2n1 | inactive: 81%
48 | Cc1cc(C)c(S(=O)(=O)Nc2cc(-c3cn4ccccc4n3)ccc2C)cc1C | inactive: 66%
49 | O=C(CCC(=O)c1ccccc1)Nc1cccnc1 | inactive: 96%
50 | CCN1CCN(C(=O)c2ccc3c(c2)N(Cc2ccc(Cl)cc2)C(=O)c2ccccc2S3(=O)=O)CC1 | inactive: 92%
51 | COc1ccc(C(=O)N(Cc2sccc2C)C2CCS(=O)(=O)C2)cc1Cl (stereo unspecified) | inactive: 113%
52 | Cc1ccc(C(=O)c2sc(Nc3ccccc3F)c(S(=O)(=O)c3ccccc3)c2N)c(C)c1 | inactive: 91%
53 | O=C(NCc1ccc2c(c1)OCO2)c1ccc2c(c1)N(Cc1cccc(Cl)c1)C(=O)c1ccccc1S2 | inactive: 66%
54 | Cc1cccc(N2CCN(C(=O)C3CCN(S(=O)(=O)c4c(C)noc4/C=C/c4ccccc4F)CC3)CC2)c1C | inactive: 58%
55 | CC1(C)Cc2ccccc2/C(=C/C(=O)N2CCOCC2)N1 | inactive: 110%
56 | O=C(Cn1ncc2c([nH]c3ccccc32)c1=O)Nc1cc(F)ccc1F | inactive: 71%
57 | CC(=O)c1ccc(NC2=NS(=O)(=O)c3ccccc32)cc1 | inactive: 91%
58 | COc1c(Cl)cc(C(=O)Nc2cccc(-c3nc4ccccc4[nH]3)c2)cc1Cl | inactive: 33%
59 | O=C(Nc1nnc(S(=O)(=O)N2CCCCCC2)s1)c1ccc(Br)cc1 | inactive: 68%
60 | O=C(CSc1nnc(-c2ccccc2)o1)Nc1ccccc1 | inactive: 100%
61 | CCOC(=O)c1c(Nc2cccc(O)c2)nnc(-c2ccccc2)c1-c1ccccc1 | inactive: 44%
62 | Cc1cc(C)c(Cn2c3ccccc3c3cnn(CC(=O)NCCc4ccccc4)c(=O)c32)c(C)c1 | inactive: 166%
63 | CCc1cccc(C)c1NS(=O)(=O)c1c(C(=O)N2CCCCCC2)c(C)n(C)c1C | inactive: 75%
64 | Cc1ccc(Cl)cc1N1CCN(C(=O)CN2C(=O)COc3ccc(S(=O)(=O)N4CCOCC4)cc32)CC1 | inactive: 75%
65 | COc1ccc(Cl)cc1NC(=O)Cn1nnc2sc3c(c2c1=O)CCC(C(C)(C)C)C3 (stereo unspecified) | inactive: 82%
66 | O=C(NCc1ccc(F)cc1)c1ccc(CSc2nc3ccncc3n2Cc2ccc(F)cc2)cc1 | inactive: 85%

Row | SMILES | survival
67 | Cc1ccc(C)n1-c1cccc2cccnc12 | inactive: 103%
68 | CCOc1ccccc1C1CC(=O)NC(C)=C1C(=O)OC1CCCCCC1 (stereo unspecified) | inactive: 85%
69 | COCCNC(=O)Cn1c(=O)n(Cc2ccc(C(=O)NCCc3ccc(OC)c(OC)c3)cc2)c(=O)c2ccccc21 | inactive: 124%
70 | O=C(CSc1nc2ccccc2nc1Cc1ccc(F)cc1)Nc1ccc2c(c1)OCO2 | inactive: 64%
71 | COc1cc(Cl)c(C)cc1NC(=O)CCCN1C(=O)C(c2ccccc2)Oc2cccnc21 (stereo unspecified) | inactive: 92%
72 | Cc1cccc(Oc2nc3ccccn3c(=O)c2/C=C(\C#N)c2nc3ccccc3s2)c1C | inactive: 67%
73 | COc1ccc(NC(=O)C2CCCN(S(=O)(=O)c3cn(C)cn3)C2)cc1Cl (stereo unspecified) | inactive: 45%
74 | Cc1ccc(NC(=O)Cn2cc(S(=O)(=O)c3ccc(F)cc3)c(=O)c3cc4c(cc32)OCO4)cc1 | inactive: 71%
75 | Cc1ccc(NC(=O)CSc2nccn2C2CCCC2)cc1 | inactive: 67%
76 | COc1ccc(CCNC(=O)c2ccc3c(c2)CCN3S(=O)(=O)c2ccc(Cl)cc2)cc1 | inactive: 88%
77 | COc1ccc(OC)c(NC(=O)c2ccc(-c3nc(CSc4ccccc4)c(C)o3)cc2)c1 | inactive: 63%
78 | CC(C)(C)C(=O)Cn1c(=O)n(CCCCCC(=O)NCc2ccc3c(c2)OCO3)c(=O)c2sccc21 | inactive: 85%
79 | Cc1ccc(C(=O)CSc2nc3cc(C(=O)NC4CCCC4)ccc3c(=O)n2CC2CCCO2)cc1 (stereo unspecified) | inactive: 75%
80 | CCCCn1cc(S(=O)(=O)c2ccc(CC)cc2)c(=O)c2cc(F)c(N3CCCC(C)C3)cc21 (stereo unspecified) | inactive: 115%
81 | COc1ccccc1CCNC(=O)c1ccc(NC(=O)N2CC(C)Sc3ccccc32)cc1 (stereo unspecified) | inactive: 85%
82 | CSc1cccc(NS(=O)(=O)c2ccc3[nH]cc(C(=O)N4CCCC4)c(=O)c3c2)c1 | inactive: 85%
83 | Cn1c(=O)n(C)c2cc(N3CCCCC3)c(NC(=O)c3ccc(Cl)cc3)cc21 | inactive: 85%
84 | COc1cc(OC)c(NC(=O)c2c(C)nn(-c3ccc(C)cc3)c2-n2cccc2)cc1Cl | inactive: 73%
85 | COc1ccc(C(=O)NCCn2cc(SCC(=O)Nc3ccccc3)c3ccccc32)cc1OC | inactive: 65%
86 | CCOC(=O)Cn1nnnc1CN(Cc1cc2c(C)ccc(C)c2[nH]c1=O)C1CCCCC1 | inactive: 104%
